# Results published in PubChem BioAssay AID1346428 (National Center for Advancing Translational Sciences (NCATS), 2018).
# “And” between values parts separate entries of the source, which are not always exact repeats. Equal entries are not always repeated. About 1,200 (2.5%) of roughly 48,000 compounds were called active. Another 2% or so got no clear call; they are omitted.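 The calls were made as follows: active = activation of at least 60% and not above a set upper limit (about 1 call in 100 departs from these limits); inconclusive = activation of 40% to 60%, or above that upper limit; inactive = activation under 40%.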 Some of the results follow.
# Molecular target: Probable G-protein coupled receptor 32 (Homo sapiens) (UniProt O75388)
# Assay: qHTS for Agonists of Human Resolvin D1 Receptor DRV1; also: 0% is about no effect
# Conditions: CHO-K1 GPR32 beta-arrestin PathHunter luminescence, 90 min; at 76.9 µM; hits give high values; zero percent set by DMSO-only wells
# In short: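 Step 1: seed CHO-K1 GPR32 beta-arrestin cells, 2,500/well, overnight at 37 °C. Step 2: add compounds, 90 min at 37 °C. Step 3: detection reagent, 1 h ambient, then luminescence.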
# UniProt O75388, sequence (O75388 whole entry, looked up): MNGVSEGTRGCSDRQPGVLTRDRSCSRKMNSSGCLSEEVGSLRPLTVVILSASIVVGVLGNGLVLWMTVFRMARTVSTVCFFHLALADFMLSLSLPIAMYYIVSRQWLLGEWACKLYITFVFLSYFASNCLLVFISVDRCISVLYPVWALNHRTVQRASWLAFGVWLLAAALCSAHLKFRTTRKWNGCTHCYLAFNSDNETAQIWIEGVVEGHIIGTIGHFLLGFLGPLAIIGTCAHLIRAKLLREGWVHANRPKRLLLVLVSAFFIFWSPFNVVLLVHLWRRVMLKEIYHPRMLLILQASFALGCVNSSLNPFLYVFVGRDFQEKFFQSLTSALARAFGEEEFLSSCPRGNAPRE
row,SMILES,activation
1,COc1ccc(C(=O)Oc2c(Sc3ccccc3)c(C)nn2-c2ccccc2)cc1OC,inactive: 20.3%
2,COCCCNS(=O)(=O)c1ccc(N2CCCCS2(=O)=O)cc1,inactive: 6.38%
3,CCOC(=O)c1scc(-c2ccc(C)cc2)c1S(=O)(=O)Nc1cccc(CC)c1,inactive: -20%
4,COc1ccc(-n2c(SCC(=O)Nc3nnc(C)s3)nc3c([nH]c4ccccc43)c2=O)cc1,inactive: -18.8%
5,Cc1onc(-c2ccc(Br)cc2)c1C(=O)Nc1ccc(Br)cc1F,inactive: -20.5%
6,COc1cccc(CNc2ncc(-c3ccc(Br)cc3)n2C)c1,inactive: -59.6%
7,COc1cccc2sc(N3CCN(C(=O)CS(=O)(=O)c4ccc(Cl)cc4)CC3)nc12,inactive: 12.8%
8,CC(C)N(C(=O)c1cc2c(Cl)nc3ccccc3c2s1)C1CCCCC1,inactive: 4.35%
9,CCOC(=O)c1ccccc1Nc1cc(C)nc2nc(-c3ccco3)nn12,inactive: -9.7%
10,Cc1cccc(C(=O)Nc2cc3c(cc2N2CCOCC2)n(C)c(=O)n3C)c1,inactive: -27.4%
11,CC1=C(C(=O)Nc2cc(C)ccc2C)C2(CCCCCC2)OC1=O,inactive: -13.6%
12,Cc1cc(C)c(S(=O)(=O)N2CCN(Cc3nc4ccc(C)cc4o3)CC2)c(C)c1,inactive: 42.1%
13,CCOc1ccc(NC(=O)Cn2cc(C(=O)c3ccc(C)cc3)c(=O)c3cc4c(cc32)OCCO4)cc1,inactive: 10.5%
14,O=C(O)CC(NS(=O)(=O)c1ccc(Br)s1)c1ccccc1 (stereo not drawn),inactive: 5.59%
15,O=C(NCCCN1CCN(c2ccccc2)CC1)c1nnc(Cc2ccc(F)cc2)o1,inactive: -11.5%
16,CCN1C(C(=O)c2ccccc2)=C(OC(=O)COc2ccccc2)c2ccccc2S1(=O)=O,inactive: -74.4%
17,Nc1c(-c2nc(-c3ccccc3)cs2)c2ccccn2c1C(=O)c1ccc2c(c1)OCO2,inactive: -3.73%
18,COc1ccc(-n2c(C)nc3cc(C(=O)NC4CCCC4)ccc32)cc1,inactive: 4.59%
19,CC(C)OCCCN(C)C1CCN(S(=O)(=O)c2csc(C(N)=O)c2)CC1,inactive: -48.1%
20,CCOCCCNC(=O)Nc1cc(C(=O)NCc2ccc(C(C)C)cc2)ccc1N1CCCC1,inactive: -27.9%
21,Cc1ccc(N2CCN(S(=O)(=O)c3ccc4oc(=O)c5ncn(C)c5c4c3)CC2)c(C)c1,inactive: -3.38%

row,SMILES,activation
1,CC(=O)c1ccc(C(=O)N(Cc2cccnc2)c2nc3c(Cl)cccc3s2)cc1,inactive: -30.7%
2,Cc1cccc(-c2nnc(SCC(=O)N3CCCc4ccccc43)o2)c1,inactive: 14.3%
3,CSc1cccc(NC(=O)Cn2nc(C)c3sc4ccccc4c3c2=O)c1,inactive: -0.605%
4,COc1cc2c(cc1OC)C(COc1ccc(F)cc1)N(C(=O)c1ccccc1F)CC2 (stereo not drawn),inactive: -6.16%
5,CCCCCCCCCCCCCCCC(=O)NCCO,inactive: 17.6% and inactive: -0.646%
6,CCCCCCCCCCCCCCCC(=O)OC(CC(=O)O)C[N+](C)(C)C (stereo not drawn),inactive: 3.8%
7,Cc1cc(C)cc(NC(=O)C2CCN(c3cc(C)nc4c(-c5ccc(Cl)cc5)c(C)nn34)CC2)c1,inactive: 5.13%
8,Cc1ccc(S(=O)(=O)c2nnn3c2nc(NCc2cccs2)c2sccc23)cc1C,inactive: -1.64%
9,COC(=O)C(C)NC(=O)N1CCN(c2nnc(C)c3c(C)n(-c4ccc(Cl)cc4)nc23)CC1 (stereo not drawn),inactive: 7.2%
10,Cn1nnnc1SCCNCc1ccccc1OCc1ccc(Cl)cc1Cl,inactive: 38.9%
11,CCOc1ccc(NC(=O)Cn2cc(C(=O)c3ccc(F)cc3)c(=O)c3cc4c(cc32)OCCO4)cc1,inactive: 12.1%
12,COc1ccc(-c2cc(C(F)(F)F)n3nc(C(=O)O)c(Cl)c3n2)cc1OC,inactive: -34%
13,Cc1ccc(-n2ncc(C(=O)N3CCN(Cc4ccccc4)CC3)c2C2CCN(C(=O)OC(C)(C)C)CC2)cc1,inactive: -19.1%
14,CC(=O)c1cc(-c2ccccc2)n(CCC(=O)Nc2ccc(C(C)C)cc2)c1C,inactive: -11.4%
15,Cc1ccc(-n2ccnc(NCCc3ccc(S(N)(=O)=O)cc3)c2=O)c(C)c1,active: 80.5%
16,COc1ccc(NC(=O)Cn2cnc3ccc(S(=O)(=O)N4CCC(C)CC4)cc3c2=O)cc1Cl,inactive: 26.7%
17,CC(C)(C)OC(=O)N1CCC(c2c(C(=O)NCCN3CCCC3)cnn2-c2ccc(Cl)cc2)CC1,inactive: -26.6%
18,CC(C)CC(NP(=O)(O)O[C@@H]1O[C@@H](C)[C@H](O)[C@@H](O)[C@H]1O)C(=O)NC(Cc1c[nH]c2ccccc12)C(=O)O (stereo partly drawn),inactive: -6.7%
19,CCOc1ccc(/C=C/c2nc(C#N)c(NC3CCCCC3)o2)cc1,inactive: -25%
20,Cc1oc(-c2ccc(C(=O)NCc3ccc(F)cc3)cc2)nc1CS(=O)c1ccccc1 (stereo not drawn),inactive: 49%
21,Cc1cc(C)cc(C(=O)Nc2c(C(=O)Nc3ccccc3F)oc3ccccc23)c1,inactive: 0.437%

row,SMILES,activation
1,CC(=O)c1cc2c(cc1N/C(=N/S(=O)(=O)c1ccccc1)c1ccc(Cl)cc1)OCO2,inactive: -23.3%
2,COc1ccccc1-c1nnc(SCC(N)=O)o1,inactive: 9.85%
3,CCN(CC)CCNC(=O)c1ccc(-c2nc(CS(=O)(=O)c3ccc(C)cc3)c(C)o2)cc1,inactive: -8.77%
4,CC(C)c1ccc(NC(c2nnc(-c3ccccc3)o2)c2ccc(F)cc2Cl)cc1 (stereo not drawn),inactive: -27.6%
5,COc1ccccc1OCCn1c(C(C)Oc2ccccc2)nc2ccccc21 (stereo not drawn),inactive: -25.7%
6,Cc1ccccc1NC(=O)CSc1nc2ccc(NC(=O)c3ccccc3)cc2s1,inactive: 1.8%
7,COc1ccc(NC(=O)C2=C(C)C(=O)OC23CCN(C(C)C)CC3)cc1Cl,inactive: -25.7%
8,CC1CCC(Nc2ncnc3onc(-c4ccc(Cl)cc4)c23)CC1 (stereo not drawn),inactive: 27.9%
9,COc1ccc(-c2coc3c2c(C)cc2oc(=O)c(C)c(C)c23)cc1,inactive: 12.6%
10,CC(=O)OCc1cnc(C)c2oc(=O)c(C(=O)Nc3ccc(C)cc3Cl)cc12,inactive: -7.51%
11,Cc1ccccc1CN1C(=O)C(O)(CC(=O)c2ccccc2)c2cc(Cl)ccc21 (stereo not drawn),inactive: -9.11%
12,Cc1ccc(CNC(=O)c2oc3ccc(S(=O)(=O)N4CCC(C)CC4)cc3c2C)cc1,inactive: -5.19%
13,CCCCN1C(=O)CN(C2CCCCCC2)C(=O)C1c1ccc(OC(C)C)c(OC)c1 (stereo not drawn),inactive: -17.1%
14,Cc1cccc(OCC(=O)Nc2ccc3nc(Nc4cccc(C(F)(F)F)c4)cc(C)c3c2)c1,active: 75.7%
15,CCCCNC(=O)c1cc2c(=O)n3cccc(C)c3nc2s1,inactive: 5.11%
16,COc1ccccc1CNC(=O)c1ccc2c(c1)N(Cc1cc(C)ccc1C)C(=O)c1ccccc1S2,inactive: -24.4%
17,Brc1ccc([C@H]2CN3CCSC3=N2)cc1,inactive: 0.537%
18,C=CC[C@H](N)C(=O)O,inactive: 10.4%
19,O=C(Cc1ccccc1)N(Cc1cccnc1)c1nc2ccc(Cl)cc2s1,inactive: -21%
20,CC(=O)c1cccc(NC(=O)CSc2nnc3ccc(-c4ccc(F)cc4)nn23)c1,inactive: -4.86%
21,CCCOc1ccc(C(=O)Nc2ccc3oc(-c4ccc5ccccc5c4)nc3c2)cc1,inactive: -10.4%

row,SMILES,activation
1,COc1ccc(NC(=O)c2ccc3c(SCC(=O)O)c4c(nc3c2)CCCC4)cc1OC,inactive: -8.74%
2,CCOC(=O)c1cccc(-n2nnc3c(sc4nc(C)c(Br)c(C)c43)c2=O)c1,inactive: -6.82%
3,O=C(Nc1ccc(Br)cc1F)c1cc(S(=O)(=O)NC2CCCC2)ccc1F,inactive: -7.52%
4,Cc1sc2ncn(CC(=O)Nc3ccc(F)cc3Cl)c(=O)c2c1S(=O)(=O)N1CCN(c2ncccn2)CC1,inactive: -12.7%
5,CCOC(=O)c1c(C)oc2ncnc(N3CCN(c4ccc(C)cc4C)CC3)c12,inactive: -1.42%
6,O=C(NCCc1ccccc1)c1cc(-c2ccc(Br)cc2)on1,inactive: 3.85%
7,CCOC(=O)c1ccccc1NC(=O)Cn1c(=O)n(CCC(=O)NCc2ccccc2OC)c(=O)c2ccccc21,inactive: -3.23%
8,Cn1c(=O)c2c(nc(Oc3ccc(C#N)cc3)n2Cc2ccc(Cl)cc2Cl)n(C)c1=O,inactive: -8.05%
9,COc1cccc(-c2nnc3n(Cc4ccc(C)cc4)c(=O)c4ccccc4n23)c1O,inactive: 9.2%
10,CCN1CCN(c2csc3ccc(F)cc3c2=O)CC1,inactive: -14.3%
11,CCCCN(Cc1cccs1)S(=O)(=O)c1cc(-c2cc(C)no2)ccc1C,inactive: -20.3%
12,Cc1cccn2c(=O)cc(CSc3nnc(NC(=O)COc4ccc(F)cc4)s3)nc12,inactive: -10.5%
13,COc1cccc(CNC(=O)c2[nH]c3cc(C)ccc3c2Sc2ccccc2)c1,inactive: -4.82%
14,CCOC(=O)c1c(S(=O)(=O)NCC(=O)N2CCN(c3cccc(Cl)c3)CC2)c(C)n(C)c1C,inactive: -0.0016%
15,COc1ccc(-c2nc3scc(CCNS(=O)(=O)c4c(C)noc4C)n3n2)cc1OC,inactive: -15.7%
16,Cc1ccc(C)c(Nc2nn3c(=O)c4ccc(C(=O)NCCC5=CCCCC5)cc4nc3s2)c1,inactive: 48.2%
17,Cc1ccc(N2CC(C(=O)NCCS(=O)(=O)N3CCN(c4ccccc4)CC3)CC2=O)cc1C (stereo not drawn),inactive: -15.4%
18,COc1ccc(CCNS(=O)(=O)c2cc(-c3cc(C)no3)ccc2OC)cc1OC,inactive: -10.6%
19,CC(C)c1ccc(-c2noc(SCC(=O)N3CCN(c4ccc(F)cc4)CC3)n2)cc1,inactive: -15%
20,CCOc1ccc(OCc2ccc(C(=O)Nc3cc(OC)c(OC)c(OC)c3)o2)cc1,inactive: 9.43%
